Test results: PubChem BioAssay AID1768 (National Center for Advancing Translational Sciences (NCATS), 2009)
Hit rate of the full screen: of about 270,000 compounds, about 620 (0.23%) were called active. This list was built around the results that the source calls inconclusive (neither active nor inactive); the mix of calls is not that of the screen. Calls come from the whole dose curve; as a rule, active = well fitted inhibition curve with a large enough effect in the polarisation, with a control signal flat (not every such curve was filed as active); inconclusive = small, poorly fitted or top-dose-only effect, or effect the other way, or a change in a side signal; inactive = no such curve, though single readings can be large or run the other way; the % refers to the polarisation. Potencies beside an inconclusive call are fits to weak or partial responses and may not hold up. A note “side channel” means that the fit belongs to a control or component signal, not to the main read-out.

What follows are compounds tested against Menin (Homo sapiens) (UniProt O00255) (assay: qHTS Assay for Inhibitors Targeting the Menin-MLL Interaction in MLL Related Leukemias: Competition With Texas Red Labeled MLL-derived Mutant Peptide). Conditions: fluorescence polarization; series mostly up to 61.6 µM.
Chain of UniProt O00255 (O00255 whole entry, looked up): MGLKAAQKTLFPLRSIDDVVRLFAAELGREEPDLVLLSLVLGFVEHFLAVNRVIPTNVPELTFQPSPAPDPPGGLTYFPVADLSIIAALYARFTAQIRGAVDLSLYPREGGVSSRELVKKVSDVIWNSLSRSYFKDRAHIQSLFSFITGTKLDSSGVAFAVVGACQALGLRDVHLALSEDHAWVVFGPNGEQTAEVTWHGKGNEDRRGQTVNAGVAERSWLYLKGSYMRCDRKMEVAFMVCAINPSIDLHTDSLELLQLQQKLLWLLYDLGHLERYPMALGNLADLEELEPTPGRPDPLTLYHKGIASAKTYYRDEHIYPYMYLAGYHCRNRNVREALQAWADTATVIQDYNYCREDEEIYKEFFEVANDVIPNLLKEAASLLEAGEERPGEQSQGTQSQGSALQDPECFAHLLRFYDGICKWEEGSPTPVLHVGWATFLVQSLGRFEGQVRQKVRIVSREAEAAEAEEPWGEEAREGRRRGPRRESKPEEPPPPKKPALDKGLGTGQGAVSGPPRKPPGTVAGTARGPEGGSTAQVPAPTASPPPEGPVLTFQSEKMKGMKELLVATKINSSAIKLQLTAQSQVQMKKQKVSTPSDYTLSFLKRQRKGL
Potency is the fitted concentration of half-maximal effect; tags give direction and shape of the fitted curve or compound fluorescence and quenching.

SMILES | Potency
O=C(Nc1ccc(S(=O)(=O)N2CCOCC2)cc1)c1ccc([N+](=O)[O-])cc1Cl | inconclusive: 31.6 µM [quencher, side channel, single point]
CCc1ccc(/C=C2/SC(=S)N(CC(=O)Nc3nc4ccccc4s3)C2=O)cc1 | inconclusive: 3.98 µM [quencher, side channel, partial curve]
CNc1ccc(Br)cc(C(=O)/C=C/c2cccc(Cl)c2Cl)c1=O | inconclusive: 11.2 µM [quencher, side channel, partial curve]
O=C(CN1CCN(C2CCCCC2)CC1)c1c[nH]c2ccccc12 | inconclusive: 3.55 µM [inhibitor, partial curve]
Cc1ccc(S(=O)(=O)N2C(=O)CCC2C(=O)O/N=C(\N)c2ccccc2)cc1 (stereo unspecified) | inconclusive: 3.55 µM [quencher, side channel, single point]
CCOC(=O)c1c(NC(=O)COC(=O)C2CC2C)sc(C)c1C (stereo unspecified) | inconclusive: 7.08 µM [fluorescent, side channel, partial curve]
COCCn1c(=O)cnc2cnc(N3CCN(C)CC3)nc21 | active: 35.5 µM
Cc1ccc(Cn2cc(C(=O)NN)c(=O)c3ccc(F)cc32)cc1 | inconclusive: 20 µM [inhibitor, partial curve]
COc1ccc(-c2cn(Cc3ccc4c(c3)C(=O)c3ccccc3C4=O)nn2)cc1 | inconclusive: 14.1 µM [quencher, side channel, partial curve]
COc1cccc(NC(=O)c2cc3ccccc3o/c2=N\O)c1 | inconclusive: 28.2 µM [quencher, side channel, single point]
Cc1cc([N+](=O)[O-])ccc1N=Nc1c(N)[nH]n(-c2ccccc2)c1=O | inconclusive: 12.6 µM [quencher, side channel, partial curve]
CCOc1cc(C(=O)NCCOC)cc(OCC)c1OCC | inconclusive: 10 µM [inhibitor, partial curve]
CSc1ccc(/C=N/NC(=O)CNc2ccc3ccccc3c2)cc1 | inconclusive: 39.8 µM [quencher, side channel, single point]
O=C(CNC(=O)c1cccs1)N=Nc1c(O)[nH]c2ccc([N+](=O)[O-])cc12 | inconclusive: 35.5 µM [quencher, single point]
Oc1ccc2ccccc2c1CNc1cnc2ccccc2c1 | inconclusive: 35.5 µM [quencher, side channel, single point]
Cc1cccnc1CN1CCN(Cc2nc(C(c3ccccc3)c3ccccc3)no2)CC1 | inconclusive: 7.08 µM [fluorescent, side channel, partial curve]
O=C(C1=C[C@@H](c2csc3ccccc23)C[C@@H](OCc2ccc(CO)cc2)O1)N1CCN(Cc2ccc3c(c2)OCO3)CC1 | inconclusive: 1.78 µM [fluorescent, side channel, full curve]
COCC1CCCCN1C(=O)c1ccc2oc(CCCc3ccccc3)nc2c1 (stereo unspecified) | inconclusive: 3.16 µM [fluorescent, side channel, full curve, poor fit]
O=C(CCCn1c(=O)c2ccccc2n(Cc2ccccc2)c1=O)NCc1ccco1 | inconclusive: 7.08 µM [fluorescent, side channel, partial curve]

SMILES | Potency
Cc1ccc(NC(=O)CN2CCc3ccccc3C2)cc1 | inconclusive: 28.2 µM [fluorescent, side channel, single point]
CC(=O)Nc1ccc(S(=O)(=O)N2CCN(Cc3ccncc3)CC2)cc1 | inconclusive: 3.55 µM [inhibitor, single point]
CCn1c(CNc2ccccc2Cl)nnc1SCC(=O)NCc1ccccc1 | inconclusive: 15.8 µM [fluorescent, side channel, partial curve]
Cc1cc(C)n(/N=C/c2c[nH]c3ccccc23)c(=O)c1C#N | inconclusive: 25.1 µM [fluorescent, side channel, single point]
COc1ccc(-n2c(C)nc3c(cnn3-c3ccc(C)cc3)c2=O)cc1 | inconclusive: 10 µM [fluorescent, side channel, partial curve, poor fit]
CCN1CCN(c2ncnc3scc(-c4ccc(C)c(C)c4)c23)CC1 | inconclusive: 14.1 µM [fluorescent, side channel, partial curve]
O=C1CC(c2ccco2)Cc2nc(Nc3ccc(F)cc3)ncc21 (stereo unspecified) | inconclusive: 10 µM [quencher, side channel, partial curve]
O=C(Cn1ccc2ccccc2c1=O)N1CCN(Cc2ccc3c(c2)OCO3)CC1 | inconclusive: 8.91 µM [inhibitor, single point]
CCn1cc(CN2CCCC(C(=O)Nc3cccc(-c4cc5ccccc5[nH]4)c3)C2)c(C)n1 (stereo unspecified) | inconclusive: 39.8 µM [quencher, side channel, single point]
COc1ccc(Oc2ncc3nc(-c4cccs4)c(=O)n(Cc4cccs4)c3n2)cc1 | inconclusive: 10 µM [quencher, side channel, partial curve]
O=C(Cn1ncc2c3ccccc3n(Cc3ccccc3F)c2c1=O)NC1CC1 | inconclusive: 31.6 µM [fluorescent, side channel, single point]
COc1ccc(N(CC(=O)Nc2ccc(C(N)=O)cc2)S(=O)(=O)c2ccc(C)c([N+](=O)[O-])c2)cc1 | inconclusive: 25.1 µM [quencher, partial curve]
O=C(Nc1cccc(F)c1)c1ccc(S(=O)(=O)N2CCCC2)cc1 | inconclusive: 25.1 µM [quencher, side channel, single point]
Nc1[nH]c2cc([N+](=O)[O-])ccc2c1-c1ccccn1 | inconclusive: 14.1 µM [quencher, side channel, partial curve]
COc1ccccc1Nc1ccc(NS(=O)(=O)c2ccc(C(C)=O)cc2)cc1 | inconclusive: 20 µM [quencher, side channel, partial curve]
CCC(C)(C)NC(=O)C(c1ccc(OC)cc1)N(Cc1ccc(OC)cc1)C(=O)CCC(=O)Nc1cc(C)on1 (stereo unspecified) | inconclusive: 25.1 µM [fluorescent, side channel, partial curve, poor fit]
O=C(Cn1nnc(-c2ccccc2)n1)NCc1ccc2c(c1)OCO2 | inconclusive: 39.8 µM [inhibitor, single point]
Cc1ccc(/C=C2\SC(=S)N(CCCC(=O)Nc3nccs3)C2=O)cc1 | inconclusive: 3.16 µM [inhibitor, single point]
COC(=O)c1ccc(NC(=O)c2ccc3c(c2)C(=O)N(C)C3=O)cc1 | inactive

SMILES | Potency
Cn1c(COc2ccccc2)nnc1SCC(=O)c1cccc([N+](=O)[O-])c1 | inconclusive: 1.12 µM [inhibitor, full curve]
Cc1ccc(N2C(=O)C(Cl)=C(N3CCCCCC3)C2=O)c(C)c1 | inconclusive: 11.2 µM [fluorescent, side channel, partial curve]
COc1cc2c(cc1OC)CN(CCC(=O)c1ccc(Br)cc1)CC2 | inconclusive: 39.8 µM [fluorescent, side channel, single point]
COc1ccc2c(c1)C1=NN(/C(C)=C/C(C)=O)C(c3ccc(F)cc3)C1CC2 (stereo unspecified) | inactive
Cc1ccccc1N/N=C/c1ccc(C#N)cc1 | inconclusive: 28.2 µM [quencher, side channel, single point]
CCn1c(=O)c(C(=O)Nc2ccc(C)cc2)c(O)c2ccccc21 | inconclusive: 39.8 µM [inhibitor, single point]
OCCN1CCN(c2nc(N3CCCCC3)nc(N3CCCCC3)n2)CC1 | inconclusive: 31.6 µM [fluorescent, side channel, single point]
O=C(OCC(=O)N(C1CCCCC1)C1CCCCC1)c1ccc(O)cc1 | inconclusive: 31.6 µM [fluorescent, side channel, partial curve]
Cc1cc(C(=O)Nc2sc(C)c(-c3ccc(F)cc3)c2C(N)=O)no1 | inactive
COc1ccc(C(OCC(O)CN2CCC(O)CC2)c2ccc(OC)cc2)cc1 (stereo unspecified) | inactive
Cc1[nH]nc2ncc(C(=O)c3cc(Cl)cc(Cl)c3O)cc12 | inconclusive: 14.1 µM [quencher, side channel, partial curve]
O=C(NN=C1CCC(c2ccccc2)CC1)c1ccccc1-n1cccc1 (stereo unspecified) | inactive
CCCOc1ccc(/C=C2\SC(N)=NC2=O)cc1OC | inconclusive: 39.8 µM [fluorescent, side channel, single point]
O=c1oc2ccccc2c2c1C(c1ccc(Cl)cc1)Nc1ccc3ccccc3c1-2 (stereo unspecified) | inconclusive: 7.08 µM [inhibitor, single point]
O=C(CNC(=O)c1cccs1)NCCN1CCN(c2ccccc2F)CC1 | inconclusive: 15.8 µM [inhibitor, partial curve]
O=C(C1=C(O)C(=O)N(c2ccccc2)C1c1ccc([N+](=O)[O-])cc1)c1cccs1 (stereo unspecified) | inconclusive: 35.5 µM [quencher, side channel, single point]
Cc1nn(-c2ccccc2)c(C)c1/C=N/NC(=O)c1ccccc1NS(=O)(=O)c1cccs1 | inconclusive: 14.1 µM [quencher, side channel, partial curve, poor fit]
Cc1ccc(C(=O)N2CCC(C(=O)c3c(C)cc(C)cc3C)CC2)cc1 | inconclusive: 3.55 µM [fluorescent, side channel, partial curve]
